Measurements from article PMC4944999 (PLoS ONE, 2016).

Molecular target: Aichi H3N2 binding to 2,6'-sialyllactose
Details: read-out: IC50, inhibition of virus binding to immobilized 2,6'-sialyllactose

Compound	IC50 [µM]	IC50 (SPR, biotinylated α-2,6’-sialyllactose on neutravidin surface (650 RU), virus preincubated with inhibitor, sigmoidal fit, duplicate experiments) [µM]
CC(=O)N[C@H]1[C@H]([C@H](O)[C@H](O)CO)O[C@@](OC[C@H]2O[C@@H](O[C@H]3[C@H](O)[C@@H](O)C(O)O[C@@H]3CO)[C@H](O)[C@@H](O)[C@H]2O)(C(=O)O)C[C@@H]1O (some centres unmarked) [2,6‘-sialyllactose, reference compound]	1790 ± 90	
ARDFYDYDVFYYAMD-NH2 [PeB]		120 ± 7

Like-named read-outs stand apart in the source and are kept apart here. Where no end group is shown, it is not given here.
